The results in this text go back to PubChem BioAssay AID1745853 (National Center for Advancing Translational Sciences (NCATS), 2022).

Common to all, as to assay: Primary Screen for Target Class Profiling of Small Molecule Inhibitors of Methyltransferases
Test [1] has as its target Glycine N-methyltransferase (Homo sapiens) (UniProt Q14749). As to conditions: purified enzyme, MTase-Glo SAH luminescence; measured here: GNMT inhibition; at 40 µM; stronger effect = lower value. In a few lines: (§1)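 Each enzyme was reacted with SAM and its substrate, with compounds tested once at 40 uM; SAH formed was read by MTase-Glo luminescence.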
The target of test [2] is Guanidinoacetate N-methyltransferase (Homo sapiens) (UniProt Q14353). As to conditions: purified enzyme, MTase-Glo SAH luminescence; measured here: GAMT inhibition; at 40 µM; stronger effect = lower value. In a few lines:
as §1

Test [3] deals with Histamine N-methyltransferase (Homo sapiens) (UniProt P50135). As to conditions: purified enzyme, MTase-Glo SAH luminescence; measured here: HNMT inhibition; at 40 µM; stronger effect = lower value. In a few lines: as §1
Test [4] deals with Nicotinamide N-methyltransferase (Homo sapiens) (UniProt P40261). As to conditions: purified enzyme, MTase-Glo SAH luminescence; measured here: NNMT inhibition; at 40 µM; stronger effect = lower value. A digest of the protocol: as §1
The target in test [5] is Phenylethanolamine N-methyltransferase (Homo sapiens) (UniProt P11086). The following applies: purified enzyme, MTase-Glo SAH luminescence; measured here: PNMT inhibition; at 40 µM; stronger effect = lower value. In a few lines:
as §1

Some of the results follow. These are further read-outs of the screen, such as a control signal, another cell line or another target. No call is given for them.
On the % scale 0 is the no-effect control and ±100 the full control effect.

For the compound `Cc1cnc(CC2CCN(S(=O)(=O)c3ccccc3)CC2)n1Cc1ccc(F)cc1`, the activity change, negative = inhibition in test [1] is -7.04%; in test [2] it was -3.68%; in test [3] it was -7.51%; in test [4] it was -25.5%; in test [5], -23.5%.

Turning to `O=C(NCc1nn(Cc2ccccc2)c2ccccc12)c1ccccc1C(F)(F)F`, the activity change, negative = inhibition was found to be 11.4% in test [1]; 0.846% in test [2]; 9.05% in test [3]; 0.138% in test [4]; 7.93% in test [5].

For `O=C(CCC[C@@H]1[C@H]2CCCN3CCC[C@@H](CN1Cc1cccnc1)[C@@H]23)N1CCN(C2CCCC2)CC1`, the activity change, negative = inhibition in test [1] is -7.73%; in test [2], -6.52%; in test [3] it was -26.6%; in test [4], -10.2%; in test [5], -0.139%.

Take `Cc1ccc(Cn2c(=O)c3ccccc3n3c(CCC(=O)NCCc4c[nH]c5ccccc45)nnc23)cc1`: the activity change, negative = inhibition is -6.84% in test [1]; 5.5% in test [2]; -8.65% in test [3]; -3.74% in test [4]; -3.81% in test [5].

On to `CCCn1c(=O)c2ccccc2n2c(=O)n(CC(=O)c3ccc(F)cc3)nc12`, for which the activity change, negative = inhibition was found to be 2.98% in test [1]; 0% in test [2]; 8.83% in test [3]; 7.11% in test [4]; 6.45% in test [5].

With `CC(C)C[C@H](NC(=O)[C@H](O)[C@H](N)Cc1ccccc1)C(=O)O`, the activity change, negative = inhibition in test [1] was -4.44%; in test [2], 3.91%; in test [3], -0.693%; in test [4], -3.73%; in test [5], 5.34%.

`CCOc1ccccc1CNC(=O)Cn1ccc2cc(S(=O)(=O)N3CCCC3)ccc21`: the activity change, negative = inhibition in test [1] was -0.086%; in test [2] it was 6.8%; in test [3] it was -3.74%; in test [4], -5.76%; in test [5] it was 1.48%.

Consider `COC(=O)C(CC1(O)c2ccccc2N2C(=O)C(CC(C)C)NC21)n1cnc2ccccc2c1=O` (stereo not drawn), for which the activity change, negative = inhibition was 6.02% in test [1]; 2.65% in test [2]; 8.04% in test [3]; -9.05% in test [4]; 4.36% in test [5].

In the case of `CCOCCn1c(=O)n(C(CC)C(=O)NC(C)(C)C)c2cc(C(=O)O)cnc21` (stereo not drawn), the activity change, negative = inhibition in test [1] is -3.95%; in test [2] it was -6.6%; in test [3], -1.9%; in test [4], -10.6%; in test [5] it was -5.46%.

Consider `CCOC(=O)c1cc2n(n1)CC(C)(C(=O)NC1CCCCC1)N(CCc1cccs1)C2=O` (stereo not drawn), for which the activity change, negative = inhibition in test [1] turned out to be 4.46%; in test [2], 2.39%; in test [3], 7.44%; in test [4] it was 7.02%; in test [5] it was 3.07%.

Turning to `CC(C)Cn1c(=O)c2ccccc2n2c(CCC(=O)NCc3ccccc3)nnc12`, the activity change, negative = inhibition in test [1] is -0.733%; in test [2] it was 0%; in test [3], -6.63%; in test [4], -6.62%; in test [5], -12.3%.

Regarding `CCc1csc(CNc2cc(C3CC(O)C3)nc(N)n2)n1` (stereo not drawn), the activity change, negative = inhibition in test [1] is -3.03%; in test [2], 1.87%; in test [3], -22.5%; in test [4], 1.72%; in test [5], 3.1%.

`CNC(=O)c1cc(Oc2ccc(NC(=O)Nc3ccc(Cl)c(C(F)(F)F)c3)c(F)c2)ccn1`: the activity change, negative = inhibition in test [1] is -9.66%; in test [2], -13.3%; in test [3], -0.038%; in test [4], -32%; in test [5], -4.83%.

For the compound `Cc1nc(CNC(=O)[C@H]2CCC[C@@H](O)C2)nc2c1CCCC2`, the activity change, negative = inhibition was -1.59% in test [1]; -1.8% in test [2]; -0.703% in test [3]; -0.926% in test [4]; 0.212% in test [5].

Consider `CC(C)CN(CC(=O)N(CCCN1CCCC1=O)CC(N)=O)C(=O)CNCCc1ccccc1F`, for which the values for the activity change, negative = inhibition in test [2], in test [4] and in test [5] were 2.71%, -7.03% and 5.65%, respectively.

Regarding `CC(=O)O[C@@H]1CC2C(C)(C)C(=O)C=C[C@]2(C)C2CC[C@]3(C)C(=CC(=O)[C@@H]3c3ccoc3)[C@@]21C` (stereo partly drawn), the activity change, negative = inhibition is 0% in test [1]; 2.38% in test [2]; 2.28% in test [3]; -11.6% in test [4]; -2.22% in test [5].

Consider `O=C(NCC1CN(C(=O)NC2CCCCC2)CC12CCCCC2)C1CC1` (stereo not drawn), for which the activity change, negative = inhibition in test [1] was -2.68%; in test [2], -1.37%; in test [3], -0.192%; in test [4], -7.63%; in test [5], 4.05%.

For `CC(C)n1cc2cc(C(=O)Nc3ccc4c(c3)OCCO4)sc2c1`, the activity change, negative = inhibition is -9.63% in test [1]; -3.78% in test [2]; -2.88% in test [3]; -7.02% in test [4]; -14.1% in test [5].

For the compound `COc1cccc(CC(=O)N2CC[C@H](CO)[C@H](NC(=O)C3CC3)C2)c1`, the activity change, negative = inhibition was -1.5% in test [1]; -3.94% in test [2]; -0.21% in test [3]; -4.45% in test [4]; -5.75% in test [5].

As to `COC[C@]1(O)CCN(C(=O)CSCc2ccccc2C)CC1(C)C`, the activity change, negative = inhibition in test [1] is -3.48%; in test [2] it was -7.6%; in test [3], -0.779%; in test [4], -1.74%; in test [5], -2.55%.

In the case of `CCCC1c2ccc(C)n2CCN1C(=O)Nc1ccccc1C` (stereo not drawn), the activity change, negative = inhibition in test [1] is 3.81%; in test [2] it was 0%; in test [3], 1.76%; in test [4], 5.57%; in test [5] it was 1.23%.

In the case of `Cn1cc2c3c(cccc31)CN(C(=O)c1ccccc1F)CC2`, the activity change, negative = inhibition in test [1] was -18.2%; in test [2] it was -11.5%; in test [3], -6.15%; in test [4] it was -71.8%; in test [5] it was -17.8%.

Turning to `c1ccc(CNc2nc3c(-c4ccccc4)nnn3c3ccccc23)cc1`, the activity change, negative = inhibition in test [1] was -2.82%; in test [2], 0%; in test [3], 2.42%; in test [4], -2.58%; in test [5] it was -7.84%.

With `CCCOc1ccc(CN2C(=O)c3cc(C(C)C)nn3CC2(C)C(=O)NC2CCCCCC2)cc1` (stereo not drawn), the activity change, negative = inhibition is -1.03% in test [1]; 4.65% in test [2]; 1.94% in test [3]; -10.1% in test [4]; 0.846% in test [5].

As to `CC(C)c1ccc(CN2CCC(CNS(=O)(=O)C3CC3)C2)cc1` (stereo not drawn), the activity change, negative = inhibition is -5.89% in test [1]; -14.5% in test [2]; -8.95% in test [3]; -19.6% in test [4]; -20% in test [5].

Regarding `Cc1ccc(Cn2c(=O)c3ccccc3n3c(=O)n(CC(=O)NC4CCCCC4)nc23)cc1`, the activity change, negative = inhibition in test [1] came out at 6.02%; in test [2], 0%; in test [3], 12.4%; in test [4], 6.29%; in test [5], 6.56%.

Turning to `O=C(NCCCN1CCc2ccccc2C1)C1CCc2ncc(-c3ccc(F)cc3)n2C1` (stereo not drawn), the activity change, negative = inhibition in test [1] is -8.36%; in test [2], -2.04%; in test [3], -66.3%; in test [4] it was -13.9%; in test [5] it was 1.23%.

Consider `NC(=O)CCN1CCc2onc(-c3ccccc3F)c2C1`, for which the activity change, negative = inhibition in test [1] is -7.5%; in test [2], -4.68%; in test [3] it was -1.41%; in test [4], -13.3%; in test [5], -8.63%.

Turning to `CN1C(=O)COC[C@@H]1[C@H](O)c1ccc(NS(=O)(=O)c2ccc(F)cc2)cc1`, the activity change, negative = inhibition in test [1] is -3.08%; in test [2], -4.51%; in test [3], -0.24%; in test [4], -5.2%; in test [5], -1.18%.

Regarding `C/C=C1\[C@H](O[C@@H]2O[C@H](CO)[C@@H](O)[C@H](O)[C@H]2O)OC=C(C(=O)OC)[C@H]1CC(=O)O`, the activity change, negative = inhibition is 0% in test [1]; -5.78% in test [2]; -1.65% in test [3]; -15.7% in test [4]; 0.902% in test [5].
